# Out of some 310,000 compounds screened, about 14,000 (4.5%) showed an effect of 50% or more. The effect is printed as a negative number. Some of the results follow.
# Target: human ether-à-go-go-related gene (hERG) potassium channel (human, UniProt Q12809)
# Test: primary screen, population patch clamp on CHO cells stably expressing hERG
# 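Also: peak tail current of the secondary pulse compared with the same well before compound.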
# human ether-à-go-go-related gene (hERG) potassium channel, sequence (Q12809 whole entry, looked up): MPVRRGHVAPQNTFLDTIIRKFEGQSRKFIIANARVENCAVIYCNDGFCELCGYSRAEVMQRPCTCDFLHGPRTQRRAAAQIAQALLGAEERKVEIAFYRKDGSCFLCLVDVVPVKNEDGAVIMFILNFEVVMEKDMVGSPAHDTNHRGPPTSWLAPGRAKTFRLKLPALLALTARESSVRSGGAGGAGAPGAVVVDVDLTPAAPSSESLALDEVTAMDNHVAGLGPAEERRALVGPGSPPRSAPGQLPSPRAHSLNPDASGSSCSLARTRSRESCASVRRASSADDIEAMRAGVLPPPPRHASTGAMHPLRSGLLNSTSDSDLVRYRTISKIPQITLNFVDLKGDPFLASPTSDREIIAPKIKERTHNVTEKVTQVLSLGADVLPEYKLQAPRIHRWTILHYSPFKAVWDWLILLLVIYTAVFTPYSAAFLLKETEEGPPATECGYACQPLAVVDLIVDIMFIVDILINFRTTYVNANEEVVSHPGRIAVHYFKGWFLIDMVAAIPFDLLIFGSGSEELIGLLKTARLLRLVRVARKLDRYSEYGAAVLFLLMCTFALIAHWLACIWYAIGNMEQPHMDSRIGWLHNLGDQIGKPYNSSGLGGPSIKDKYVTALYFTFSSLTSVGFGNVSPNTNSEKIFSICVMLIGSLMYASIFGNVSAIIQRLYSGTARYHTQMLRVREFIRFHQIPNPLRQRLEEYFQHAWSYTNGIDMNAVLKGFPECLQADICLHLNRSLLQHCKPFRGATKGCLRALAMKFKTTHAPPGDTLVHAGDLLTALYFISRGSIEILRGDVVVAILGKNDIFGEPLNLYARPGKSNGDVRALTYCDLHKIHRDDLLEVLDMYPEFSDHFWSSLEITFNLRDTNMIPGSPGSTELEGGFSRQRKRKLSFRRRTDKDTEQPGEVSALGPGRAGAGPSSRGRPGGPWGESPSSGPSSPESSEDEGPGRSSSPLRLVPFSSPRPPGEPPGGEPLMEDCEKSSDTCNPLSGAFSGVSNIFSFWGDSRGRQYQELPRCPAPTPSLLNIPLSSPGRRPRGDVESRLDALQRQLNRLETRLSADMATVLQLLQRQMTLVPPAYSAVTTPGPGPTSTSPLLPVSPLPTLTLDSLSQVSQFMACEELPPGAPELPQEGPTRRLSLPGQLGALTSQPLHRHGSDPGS
row,Compound,"hERG current change (%, negative = inhibition) at 10uM [%]"
1,O=C(CCSCc1cccc(F)c1)NCc1ccc(F)cc1,-22.3
2,Clc1ccc2nc3ccccn3c2c1,-3.52
3,CCOC(=O)C1CCN(C(C)=C2C(=O)c3ccccc3C2=O)CC1,-15.4
4,CCc1ccc(C(=O)Nn2c(C)nc3ccccc3c2=O)cc1,-1.71
5,CN(CC1COc2ccccc2O1)C(=O)c1cc(COc2c(F)cccc2F)on1 (centres unmarked),1.61
6,Cc1c(C(=O)NCc2ccoc2)oc2ccc3c(c12)C(=O)CC(C)(C)O3,-11.7
7,Cc1ccc(C)c(S(=O)(=O)N2CCN(C(=O)CCNS(=O)(=O)c3ccccc3)CC2)c1,-33.6
8,N#Cc1ccccc1S(=O)(=O)N1CCN(C(=O)Cc2coc3cc(O)ccc23)CC1,-24
9,O=C(Nc1cccc2cccnc12)c1ccc(Cl)cc1Cl,24.4
10,Cc1ccc(-n2nc(C)c(C(C)(O)C(F)(F)F)c2N)cc1 (centres unmarked),2.4
11,COP(=O)(/C=C(\Cl)c1ccccc1)/C=C(\Cl)c1ccccc1,-9.32
12,C=CCNc1oc(-c2ccc(OC)cc2)nc1C#N,6.02
13,COc1ccc(S(=O)(=O)N2CCCCC2)cc1NC(=O)c1ccc2c(c1)OCO2,15.4
14,COc1ccc(C(=O)N2CCN(c3ccccn3)CC2)cc1[N+](=O)[O-],-14.9
15,O=c1cc(COc2ncnc3c(Cl)cc(Cl)cc23)nc2sccn12,-7.76
16,CN(C(=O)c1ccc2c(=O)n3c(nc2c1)CCCCC3)c1ccccc1F,-21.9
17,CCOC(=O)c1csc(-c2ccc([N+](=O)[O-])cc2)n1,-10.9
18,CCC1COCCS(=O)(=O)N1Cc1ccccc1F (centres unmarked),-9.1
19,CC(C)OCCCNC(=O)CCN1C(=O)COc2ccccc21,8.74
20,CCCn1c(SCC(=O)c2cc(C)ccc2C)n[nH]c1=O,6.52
21,CCC(=O)Nc1cccc(C2=NOC3(C2)C[C@@H](C(N)=O)N(C(=O)C(c2ccccc2)c2ccccc2)C3)c1 (some centres unmarked),-0.649
22,CC(=O)Nc1ccc(S(=O)(=O)Nc2cccc(-c3cn4cccnc4n3)c2)cc1,22.1

row,Compound,"hERG current change (%, negative = inhibition) at 10uM [%]"
1,COC(=O)Nc1ccc(S(=O)(=O)N2CCCC(C(=O)O)C2)cc1 (centres unmarked),42.5
2,Cc1ccc2nc(-c3cccc(N)c3)oc2c1,-4.21
3,COc1cccc(CC(=O)N2CCN(c3ccccc3[N+](=O)[O-])CC2)c1,-21
4,CCN(Cc1ccncc1)C(=O)c1ccc2c(c1)S(=O)(=O)c1ccccc1C2=O,-43.4
5,CCCCNC(=S)Nc1ccc2cn[nH]c2c1,-1.62
6,CCC1CCCCN1C(=O)COc1ccc(S(=O)(=O)N2CCOCC2)cc1Cl (centres unmarked),-7.78
7,CCn1c(CNc2ccc(Cl)cc2)nnc1SCc1ccccc1,-24.6
8,COc1cc(C2CC(=O)Oc3c2c(=O)n(C)c2ccccc32)ccc1O (centres unmarked),14.7
9,O=C(c1ccccc1)c1ccc(OC(=O)N2CCOCC2)cc1,-13.3
10,CC1CCN(S(=O)(=O)c2nnc(NC(=O)c3ccccc3Br)s2)CC1,-7.76
11,Cc1ccsc1C1NC(=O)c2ccccc2N1 (centres unmarked),5.58
12,Cc1cccc(NC(=O)CNC(=O)COC(=O)c2ccc(C(C)(C)C)cc2)c1C,-11
13,O=c1[nH][nH]cc1C=Nc1cc(Cl)ccc1O,-2.16
14,COc1ccc(CC(=O)NCC2(N3CCCCC3)CCCCC2)cc1,-11.7
15,COc1ccc(C2NC(=O)NC(O)(C(F)(F)F)C2C(=O)c2ccc(F)cc2)cc1 (centres unmarked),1.58
16,Cc1ccc(Cc2nc(-c3ccccn3)no2)cc1,5.11
17,C=CCOc1ccc(CNc2nn[nH]n2)cc1,22
18,Cc1ccc(NC(=O)C2CCN(S(=O)(=O)c3cccc4cccnc34)CC2)nc1,-13.8
19,CCCN1CCN(CCCNC(=O)CCN2C(=O)COc3ccccc32)CC1,4.18
20,CSc1nc(C)cc(OCNC(=O)c2cccs2)n1,-0.623
21,N#Cc1c(N)n[nH]c1CCCN,7.29
22,CCCn1c(SCC(=O)Nc2ccc3c(c2)OCCO3)nnc1-c1ccco1,-66.1

# From PMC4336329 (PLoS ONE, 2015)
